According to PMC4336329 (PLoS ONE, 2015):
The whole screen tested about 310,000 compounds, of which about 14,000 (4.5%) showed an effect of 50% or more. Effects have a minus sign here. The list shows a part of the results.

The compounds below were run against human ether-à-go-go-related gene (hERG) potassium channel (human, UniProt Q12809) (assay: primary screen, population patch clamp on CHO cells stably expressing hERG).
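Further: peak tail current of the secondary pulse compared with the same well before compound.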

Chain of human ether-à-go-go-related gene (hERG) potassium channel (Q12809 whole entry, looked up): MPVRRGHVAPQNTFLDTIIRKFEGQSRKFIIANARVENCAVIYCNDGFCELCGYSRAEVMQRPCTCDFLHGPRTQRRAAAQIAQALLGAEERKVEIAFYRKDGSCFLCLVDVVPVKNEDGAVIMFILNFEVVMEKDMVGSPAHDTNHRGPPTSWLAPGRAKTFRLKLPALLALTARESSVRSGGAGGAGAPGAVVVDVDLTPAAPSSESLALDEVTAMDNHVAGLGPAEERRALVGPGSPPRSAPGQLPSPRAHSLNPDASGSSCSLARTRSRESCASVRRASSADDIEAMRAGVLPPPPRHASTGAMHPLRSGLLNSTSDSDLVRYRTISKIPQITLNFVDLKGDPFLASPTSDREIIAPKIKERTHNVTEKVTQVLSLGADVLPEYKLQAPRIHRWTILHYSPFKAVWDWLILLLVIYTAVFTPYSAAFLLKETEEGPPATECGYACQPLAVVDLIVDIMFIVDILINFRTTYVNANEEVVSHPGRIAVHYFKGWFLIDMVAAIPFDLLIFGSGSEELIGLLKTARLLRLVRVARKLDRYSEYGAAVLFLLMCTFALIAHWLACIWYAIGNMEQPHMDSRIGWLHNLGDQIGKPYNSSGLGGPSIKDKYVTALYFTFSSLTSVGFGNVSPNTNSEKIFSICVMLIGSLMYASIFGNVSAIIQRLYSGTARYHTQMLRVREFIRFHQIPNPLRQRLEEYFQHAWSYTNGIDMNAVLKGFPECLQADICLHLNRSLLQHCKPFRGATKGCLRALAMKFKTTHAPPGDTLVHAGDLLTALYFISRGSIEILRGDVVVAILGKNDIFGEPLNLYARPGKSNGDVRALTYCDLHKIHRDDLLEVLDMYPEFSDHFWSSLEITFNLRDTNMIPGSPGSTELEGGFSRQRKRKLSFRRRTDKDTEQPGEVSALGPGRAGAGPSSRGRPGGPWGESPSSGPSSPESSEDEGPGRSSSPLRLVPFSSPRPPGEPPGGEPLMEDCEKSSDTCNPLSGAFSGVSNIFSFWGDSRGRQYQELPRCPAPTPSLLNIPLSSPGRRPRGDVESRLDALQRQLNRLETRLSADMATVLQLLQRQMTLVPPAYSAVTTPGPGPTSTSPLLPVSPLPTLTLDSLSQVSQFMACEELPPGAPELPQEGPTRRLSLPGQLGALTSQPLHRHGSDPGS

SMILES	hERG current change (%, negative = inhibition) at 10uM [%]
CC(=O)N1N=C(c2ccc([N+](=O)[O-])cc2)CC1c1ccccc1Cl (stereo not shown)	-66
CC1(C)Cc2ccccc2C(C(=O)c2ccccc2)=N1	3.5
Cc1ccc(N(CC(=O)Nc2cc(Cl)ccc2Oc2ccccc2)S(C)(=O)=O)cc1C	14.3
Cc1nn(C)c(Oc2ccc(Cl)cc2)c1C=O	3.68
O=C(NNC(=O)c1ccccc1Cl)c1cc2cc(OC(F)(F)F)ccc2[nH]1	2.86
Cn1cc(C(=O)N2CCOCC2)c2ccccc21	8.49
CCCN1C(=O)NC2(O)C(=O)c3ccccc3C12O (stereo not shown)	10.9
CC(=O)c1ccc(NC(=O)c2ccc([N+](=O)[O-])o2)cc1	5.98
COc1ccc(/C=C/c2nc3ccccc3n2Cc2ccc(OC)c(OC)c2)cc1	1.72
CN(C)c1ccc([C@@H]2[C@@H]([N+](=O)[O-])[C@H]3C=Cc4ccccc4N3[C@H]2C(=O)c2ccc(Cl)cc2)cc1	2.22
O=[N+]([O-])c1c(Nc2ccccc2O)cc(N2CCOCC2)c2nonc12	-22.1
CCOC(=O)C(C)Sc1nnc(NC(=O)c2ccc(C)c([N+](=O)[O-])c2)s1 (stereo not shown)	-6.35
CCOc1ccc(-n2c(=S)sc3c(=O)[nH]c(SCC(=O)NCc4ccco4)nc32)cc1	2.72
CC1(OC(=O)C2CCCC2)C(=O)C=C2C=C(c3ccsc3)OC=C2C1=O (stereo not shown)	-1.14
CCOC(=O)C1(Cc2ccc(O)cc2)NC(c2ccco2)C2C(=O)N(c3ccccc3F)C(=O)C21 (stereo not shown)	-12
Cc1noc(C)c1C(=O)OCC(=O)Nc1ccccc1Oc1ccccc1	-12.6
CCN1CCc2c(sc(NC(=O)CN3C(=O)c4ccccc4C3=O)c2C(N)=O)C1.Cl	-36.6
Cc1onc(-c2c(Cl)cccc2Cl)c1C(=O)N1C(C)CCCC1C (stereo not shown)	1.05
CCOC(=O)N1CCN(CC(=O)Nc2ccc(Oc3ccccc3)cc2)CC1	-50.1
CCOC(=O)c1cccc(NC(=O)CCc2c(C)nc3ncnn3c2C)c1	-27.1
Cc1onc(-c2ccccc2)c1C(=O)N1CCCN(C(=O)c2c(-c3ccccc3)noc2C)CC1	-13.9
O=c1ccn(-c2cccc(C(F)(F)F)c2)nc1-c1ccn(-c2ccccc2F)n1	-47.2

SMILES	hERG current change (%, negative = inhibition) at 10uM [%]
O=C(CSc1nc2ccccc2c(=O)n1Cc1ccco1)N1CCN(c2ccccc2)CC1	-74.9
COc1ccc(CNCCC(c2ccccc2)c2ccc3c(c2)OCO3)cc1.Cl (stereo not shown)	-75
COc1cc(S(=O)(=O)N2CCN(Cc3cccs3)CC2)ccc1NC(C)=O	-14.6
O=[N+]([O-])c1nn(-c2cccc(Cl)c2)n(O)c1=NCc1cccnc1	-18.3
O=C(NCc1ccon1)C1CCC(=O)N(Cc2cccc(C(F)(F)F)c2)C1 (stereo not shown)	8.13
O=C(Nc1ccc2c(c1)Cc1ccccc1-2)c1ccc(Br)o1	1.68
Cc1ccccc1OCC(=O)NNC(=O)c1ccc(-n2cncn2)c([N+](=O)[O-])c1	-6.3
O=C(Nc1ccc2oc(-c3ccncc3)nc2c1)c1ccc2c(c1)OCO2	1.44
O=c1cccc2n1CC1CC2CN(Cc2c(F)cccc2Cl)C1 (stereo not shown)	-26.2
Cc1cccc(N(CC(=O)NC(C)C)C(=O)c2ccc(N3CCCC3)nc2)c1	4.32
CC(C)NC(=O)CCCc1ccccc1	-6.5
O=C(Nc1ccc(Oc2ccccc2)cc1)c1ccc(Cn2c(=O)[nH]c3ccsc3c2=O)cc1	-2.52
COC(=O)[C@@H]1C[C@@]2(O)[C@H](O)[C@H](O)[C@H](O)C[C@H]2N1CC1CC1	6.98
COc1ccc(/C=N/c2nc3ccccc3n2CCN2CCCCC2)cc1OC	-14.3
O=C1NC(=O)N(c2ccccc2)C1=O	19.9
Cc1cccc(NC(=O)N2CCCCCC2)c1C	13.2
Cc1noc(C)c1COc1ccccc1C(=O)Nc1ccc(C(N)=O)cc1	-9.65
C=CCn1c(SCC(=O)Nc2ccc(C)cc2C)nnc1-c1cccnc1	-14.2
Cc1cccc(Nc2ccc(NCc3ccccc3)nn2)c1	-51.8
NC(=O)C1CCN(S(=O)(=O)Cc2ccccc2Cl)CC1	14.8
C=CCN(C(C)=O)C1CC(=O)N(c2ccc(OCCC)cc2)C1=O (stereo not shown)	-12.1
COc1ccc(-c2cc(=O)oc3cc(OCC(=O)N4CCOCC4)ccc23)cc1	-42.1

SMILES	hERG current change (%, negative = inhibition) at 10uM [%]
O=C(NCCN1C(=O)CCC1=O)c1ccncc1	2.52
O=C(NN1C(=O)c2ccccc2NC1c1ccc([N+](=O)[O-])o1)c1ccc([N+](=O)[O-])cc1 (stereo not shown)	-65.5
CCOc1ccc(C)cc1S(=O)(=O)NC1CCCCCC1	-3.2
COc1ccccc1-n1c(-c2ccc(Cl)cc2)c[nH]c1=S	6.03
CC1CCC(C)(NS(=O)(=O)OCC(Cl)(Cl)Cl)CC1 (stereo not shown)	-21.7
O=C(Nc1ccc(NC(=O)c2ccco2)c(Cl)c1)c1ccc2c(c1)OCCO2	10.1
COc1ccccc1C(=O)NCCn1ccc2ccccc21	-7.18
O=C(O)c1ccc(OC(F)(F)C(F)C(F)(F)F)cc1 (stereo not shown)	13.7
COc1cccc(NC(=S)Nc2cc(C)cc(C)n2)c1	2.06
NS(=O)(=O)c1ccc(CCNC(=O)CN2CCN(c3ccccc3O)CC2)cc1	13.5
O=C(CSc1nc2c(oc3ccccc32)c(=O)n1CC1CCCO1)NCc1ccccc1 (stereo not shown)	-15.8
CC1(C)OC(=O)C(=CNc2ncccn2)C(=O)O1	1.3
COc1ccc(NC(=O)NC2(C(=O)N3CCN4CCCC4C3)CCCCC2)cc1 (stereo not shown)	12.1
COCCN1C(=O)N[C@@H](c2ccccc2)[C@@H](C(=O)OC)[C@H]1C	2.28
O=C(CCN1C(=O)C2CCCCC2C1=O)Nc1nc(-c2ccccc2)cs1 (stereo not shown)	4.09
CCc1ccc(C(C(=O)NC2CCCCC2)N(C(=O)c2ccccn2)c2cccnc2)cc1 (stereo not shown)	17.2
Nc1cccc(S(=O)(=O)Nc2ccc(Br)cc2)c1	-2.08
O=C(COC(=O)c1ccc(Cl)s1)c1ccc[nH]1	0.085
Cc1cc(NC(=O)CSc2nc3ccc(Cl)cc3[nH]2)no1	9.82
CCOC(=O)c1c(CN(C)C)n(C)c2ccc(OC(C)=O)cc12.Cl	-41.3
CC(=O)N(CN1C(=O)c2ccc([N+](=O)[O-])cc2C1=O)c1ccc(F)cc1	-1.91
Cc1ccc(C)n1-c1ccc(C(=O)NN)cc1	16.8

SMILES	hERG current change (%, negative = inhibition) at 10uM [%]
CC(C)Oc1ccc(CCNC(=O)C2CCC(=O)N(C3CCCCCC3)C2)cc1 (stereo not shown)	7.05
O=c1c(Cc2ccccc2)c(O)ccn1Cc1ccco1	17.8
CNC(=S)NNC(=O)c1sccc1OCc1ccccc1	17.8
Cc1ccc(OC(=O)c2ccc(N3CCOCC3)c([N+](=O)[O-])c2)cc1	-4.31
O=C(N/N=C/c1ccccn1)c1ccc(Cl)c(Cl)c1	-11.2
CCOC(=O)c1oc2cc(C)cc(O)c2c(=O)c1-c1csc(C)n1	1.3
CS(=O)(=O)Nc1ccc(C(=O)Nc2ccccc2C(=O)N2CCCC2)cc1	-26.8
O=C(O)CC(c1ccc(F)cc1F)N1Cc2ccccc2C1=O (stereo not shown)	22.3
COc1ccc(S(=O)(=O)N(C)C)cc1NCC(=O)Nc1cccc2ccccc12	-15.4
CCOC(=O)N1CCN(Cc2ccccc2F)CC1	2.68
CCCCNC(=O)c1onc(CCl)c1C(=O)OC	2.21
O=C(O)CCNc1cc(N2CCN(C(=O)c3ccco3)CC2)c2noc3c2c1C(=O)c1ccccc1-3	10.3
CC(Sc1nc(N)c2c3c(sc2n1)CSC(C)(C)C3)C(=O)Nc1ccccc1 (stereo not shown)	-4.32
CC(Oc1ccc(Cl)cc1Cl)C(=O)NCCCN1CCOCC1 (stereo not shown)	-1.16
O=C(NCCCO)C(=O)Nc1cc2c3c(c1)CCN3C(=O)CC2	11.8
Cc1nc2c(sc3nc(N4CCOCC4)c4c(c32)CC(C)(C)OC4)c(-c2ccccc2)c1C(=O)O	11.4
CC1=CC=CN2CC(O)CN=C12.Cl (stereo not shown)	9.41
Cl.NCC1CC2c3ccccc3C1c1ccccc12 (stereo not shown)	15.2
CC(C)CN1C(=O)/C(=C/c2ccco2)NC1=S	9.25
COc1ccccc1NC(=S)NC(NC(C)=O)C(Cl)(Cl)Cl (stereo not shown)	2.3
COc1ccc(NC(=O)CC2C(=O)N(c3ccccc3)C(=O)N2CCc2cccs2)cc1 (stereo not shown)	-32.9
CCn1c(=O)n(CC(=O)Nc2cccc(OC)c2)c(=O)c2ccccc21	-42.4
